According to the RNAGym collection of RNA variant scans (doi:10.1093/nar/gkz1192):
The source gives no read counts; variants with many changes may rest on few reads.

B1: CPEB3 Ribozyme (parent)
chain: UAACAGGGGGCCACAGCAGAAGCGUUCACGUCGCAGCCCCUGUCAGAUUCUGGUGAAUCUGCGAAUUCUGCUGUAUAUCUC

Variants of: B1
Experiment: self-cleavage, relative activity (ratio to wild type); higher = more cleavage; in vitro, sequencing
How it was run: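 For each CPEB3 ribozyme variant, relative activity is its cleaved/total read fraction divided by the unmutated ribozyme's. Barcoded error-prone PCR libraries were transcribed by T7 RNA polymerase (5 hours, 37°C) and held in DNase I for 15 min before an EDTA stop, with cleavage occurring throughout. Template-switching reverse transcription and Illumina sequencing were used to read the RNAs. A 5-read minimum applied, and results are the mean of three batches.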

Variant | self-cleavage
A5U U26A U51C | 1.02
G6A A18G U51C A56G A57G | 0.13
A5U G9A A13U U26G A65G | 0.26
A5U U49A U54C U72C U80C | 0.72
G6A A13U U43C U51C A57C U72A | 0.1
A5U U25C A64G | 0.13
A5U C59A A77G | 0.24
A5U U60C U67A A75G U78C | 0.14
G6A A21C C44A G53U | 0.07
A5U U26C G33U A64G | 0.25
G6A A35G C40A U78A | 0.38
G6A A20G A21G U31C U78A | 0.28
A5U C39A A64U | 0.12
A5U G19U A21G G24A U41G C79U | 0.43
A5U U25C A35G A77U | 0.15
G6A A15G C23A U31G U43C A56G U66A | 0.04
A5U U31A C32A U49A | 0.27
A5U U31C A75G U80C | 0.61
G6A A28G C38U U41C | 0.29
A5U U31C U49C G55C C62A A64G | 0.19
G6A A13G A35G U41G | 0.12
G6A A15G A45G A64G U69A U78C | 0.06
A5U G33C U51A | 0.23
G6A A18U U25A A35G U60C C79A | 0.04

Variant | self-cleavage
G6A A13C U26C A56U G63U A65G | 0.19
A5U U25C U41C U66C U72C U74A | 0.19
A5U G30A C32U U49C U60C | 0.22
A5U G9A U25A A28U U31C U69A | 0.04
A5U U25C U41A | 0.4
A5U U51A C62U A75G | 0.15
A5U U25C C38U U66C | 0.19
A5U U43A A56C U66A U72A | 0.25
A5U U25A G30A | 0.27
G6A A15C A18C U41G | 0.05
A5U U26C U31C U41C | 0.33
A5U G8C A35G A45G U72C U80C | 0.09
A5U U48A U60A U67C U72G | 0.12
A5U G8U A64U | 0.13
A5U G7U A15G U25C U41C U66C U78C | 0.06
G6A A28U U41A A45U G52C | 0.11
G6A A15G C27U A56U | 0.03
A5U U26C A77C | 0.46
G6A A28U U31G G36C U43A U74C A77G | 0.04
A5U U25C C37A U49C G63U U78C | 0.11
G6A A13G U43A U49C A57G A64U | 0.14
G6A A18U A21G C79G | 0.05
G6A A20G U43C A65U U74C U80A | 0.13
A5U C38U U49G U54A U67C U78C | 0.05

Variant | self-cleavage
A5U U31C U51C A65G | 0.28
A5U U25C A45G U67C | 0.12
A5U G8U A56C U78C U80C | 0.15
A5U U58A U69A | 0.22
A5U U49C U58C | 0.1
A5U U60A A77U | 0.8
A5U G33C U51C A56G U58C A64U | 0.26
A5U G6A U54C U72C | 0.14
G6A A15G U25C A65G | 0.05
G6A A20G A28G U72A | 0.23
A5U U31C A47G U48C U58C C59A | 0.1
A5U U25C A56U U58C U69A U72A U80A | 0.08
A5U U25C C39A U41G U51C U66C | 0.06
G6A A21G G33A U69A | 0.43
A5U U41A A56U U60A U69A U80A | 0.11
A5U U41C A56C | 0.83
G6A A21G A47U U72C A75G | 0.06
A5U C37U A45U U67C U74A | 0.13
G6A A18U U74C A75G | 0.24
A5U C44U U66G U76C | 0.09
G6A A15C A21G U26A | 0.2
A5U U54C U58C | 0.42
A5U G10A U31G U48C | 0.23
A5U U26C A47G U69A U80C | 0.44

Variant | self-cleavage
A5U G33U C38G U67C U78C | 0.14
A5U G8C U54A A57G U66C U72A | 0.23
A5U C32U C37A U51C A56U C62G | 0.19
G6A A28U A45U U54A A64U G73U | 0.06
G6A A15U A18U C39U U51G U58C | 0.16
A5U U26A U78C | 1
A5U C29A G30U U43A A47G G70A | 0.09
A5U G7A C37G U41A A57G U58C | 0.04
A5U U31A U58A | 0.26
G6A A28G A35G A56G A64G U69C A75C | 0.04
A5U U67A U80C | 0.74
G6A A35C G63A A65G | 0.08
A5U G36C U41C A45G | 0.12
G6A A18G U80A | 0.55
A5U G7U A15G U58C | 0.26
G6A A28G U49C A56G | 0.23
G6A A18G U60C U80A | 0.08
A5U U43C U51C G61A U76C | 0.6
A5U G30U U31C U80C | 0.16
A5U G7A U25A A45U A56G | 0.07
A5U G16C C27A C37U A64G A77G | 0.04
A5U G19A A20G U25G A45G | 0.09
A5U C32U C39A C50A | 0.39
G6A A15U A18G U54C A57G | 0.23

Variant | self-cleavage
A5U G16A U31C U51A | 0.28
G6A A20U U76C | 0.06
G6A A18U C29G U31A U54A U72A U78C | 0.04
G6A A35G U49C A57G U69C | 0.13
G6A A15G A20G G33A U60C U72C | 0.07
A5U U25G U69A | 0.21
G6A A35U A57C | 0.05
A5U G7A A21G U25C | 0.29
G6A A15U A35G U43A U49C U66C U78C | 0.04
A5U U25C A56U U76C | 0.12
A5U U25C U72A U80C | 0.56
G6A A18G U26C | 0.24
A5U G6A U48G | 0.08
A5U U26C A45G A47G A77U | 0.23
G6A A15C A21G U69A U74C U80C | 0.04
A5U C40U U51C U54C | 0.37
A5U U26G A57G | 0.29
A5U G8C G9U U66A | 0.09
A5U U31A A47G U72A U78C | 0.6
A5U U25C C38U | 0.18
A5U G7U A35G A64U | 0.19
G6A A18G U51C A56G A57G U69C U78C | 0.06
G6A A18G A28G U48C G52U U80A | 0.07
A5U U31C A35G U51G A57G A65G U78C | 0.74

Variant | self-cleavage
G6A A15G A45G | 0.3
G6A A15G A20G U43G U60A U72A A75G | 0.05
A5U G10A C39A U41A U49C A56U U72G | 0.1
A5U G9U A20G G24A U25C A35U C38U | 0.05
A5U U26A A35U A56U | 0.09
G6A A20U U31C U43C U49A | 0.06
A5U U25C U49A A65G | 0.09
A5U G9A C12U U25C A28G U41G G52A | 0.06
A5U U31C A45G U60G U78C | 0.11
A5U G10A A15G C29U U48C U54A | 0.05
A5U U43C U66C | 0.34
G6A A18G U72G | 0.06
G6A A21G A47G U54A | 0.16
A5U U41C C59A | 0.32
A5U U51A A56U | 0.4
G6A A35G U48C U49A A57G | 0.53
A5U G33A U49C U54C | 0.03
A5U G19U G30A U51A U58C A64U | 0
A5U U31C U41G A75G U78C | 0.19
A5U G7C A56G | 0.44
G6A A13U C40U U72A U76C | 0.07
G6A A13G G22U A64C U69C | 0.04
G6A A15U U54G | 0.13
A5U U25C A35G U41A | 0.45

Variant | self-cleavage
A5U C34U A35U | 0.35
A5U U60C U66A | 0.16
A5U G6A U43C U54C A64U | 0.09
A5U U26C G30U U31A U41C | 0.15
G6A A13U A18G U26A U31A G33U A75U | 0.03
G6A A21G U69A | 0.23
G6A A20G U78C | 0.09
A5U C27U C62U U78C | 0.11
G6A A15U A21U A35G U48C A56G C62U | 0.03
A5U C62A G63A | 0.4
G6A A13U A28G A57G U72A | 0.06
G6A A21G U49C G63C U67C | 0.07
A5U G8A U69C | 0.08
A5U U43A G61C A64G A65G U80C | 0.17
A5U G10A A15G A18U U25C A65U | 0.05
A5U U41C A56U U67C | 0.29
G6A A35G A57U | 0.43
A5U U26C U80C | 0.67
A5U G53C A64U | 0.35
A5U U25C U41A G63C | 0.36
A5U G8U C39U | 0.22
G6A A15G U25C A28C A56G | 0.38
A5U G6C A18U G24A | 0.42
